Laboratory results: PMC6703713
No constants are given. Whether binding was seen depends on the method and setting. In cells and extracts the contact can be indirect. Some binding calls cover weakened binding; strength is not graded here. Where a sequence is shown, tags or fusion partners need not be part of it.

Protein sequences, listed by entry. Tags and fused reporters are not part of them. Lines headed by an entry give the natural chain unless they say otherwise; changes in a name come on top. Chains listed by the source or under a name are the forms on record and can include a tag or linker.
UniProt P40793: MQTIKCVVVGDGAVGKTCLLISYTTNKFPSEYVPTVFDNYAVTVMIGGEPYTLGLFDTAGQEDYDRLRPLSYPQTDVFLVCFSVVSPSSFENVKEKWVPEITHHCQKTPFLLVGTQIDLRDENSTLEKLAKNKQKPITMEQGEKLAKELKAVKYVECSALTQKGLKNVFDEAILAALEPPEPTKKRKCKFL
GST::Cdc42^N17 (P40793, form named): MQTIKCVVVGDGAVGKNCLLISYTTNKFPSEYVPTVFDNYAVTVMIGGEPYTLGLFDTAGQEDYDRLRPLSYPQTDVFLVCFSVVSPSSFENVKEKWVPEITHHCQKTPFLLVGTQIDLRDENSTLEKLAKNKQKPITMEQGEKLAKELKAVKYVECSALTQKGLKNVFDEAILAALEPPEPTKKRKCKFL
GST::Cdc42^V12 (P40793, form named): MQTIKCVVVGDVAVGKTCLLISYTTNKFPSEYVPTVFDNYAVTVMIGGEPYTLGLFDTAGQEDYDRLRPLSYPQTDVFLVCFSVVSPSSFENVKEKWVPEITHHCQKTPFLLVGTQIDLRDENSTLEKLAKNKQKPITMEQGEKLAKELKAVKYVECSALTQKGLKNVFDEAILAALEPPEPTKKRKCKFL

Assays:
[1] = biological target: GST::Cdc42^N17 (Drosophila) (UniProt P40793); test: pull-down; GST-fusion protein purified and kept on glutathione Sepharose beads; S2R+ cell lysate added for 1 h at 4°C; washed three times in lysis buffer (50 mM Tris HCl pH 7.5, 150 mM NaCl, 0.5% Triton X-100, 1 mM EDTA); western blot and Coomassie Blue staining; only the target purified
[2] = biological target: GST::Cdc42^V12 (Drosophila) (UniProt P40793); test: as above
[3] = biological target: T1, Par6::Flag (wild type) (Drosophila) (UniProt O97111); test: co-IP; Par6::Flag immunoprecipitated with anti-FLAG M2 magnetic beads for 1 h at 4°C from lysates of transfected S2R+ cells; washed three times in lysis buffer; endogenous aPKC seen by western blot
T1 sequence: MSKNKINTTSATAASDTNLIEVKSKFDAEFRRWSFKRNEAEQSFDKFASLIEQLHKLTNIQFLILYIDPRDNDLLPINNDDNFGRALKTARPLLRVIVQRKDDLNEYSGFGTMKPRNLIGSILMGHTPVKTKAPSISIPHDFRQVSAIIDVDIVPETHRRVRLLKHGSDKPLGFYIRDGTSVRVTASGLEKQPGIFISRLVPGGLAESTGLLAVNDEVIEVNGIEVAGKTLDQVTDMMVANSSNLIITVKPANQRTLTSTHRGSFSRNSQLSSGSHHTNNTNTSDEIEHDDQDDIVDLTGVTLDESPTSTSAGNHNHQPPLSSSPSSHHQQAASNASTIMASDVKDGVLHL

[4] = biological target: T2, Par6^Δ139P::Flag (Drosophila) (UniProt O97111); test: as above
T2 sequence: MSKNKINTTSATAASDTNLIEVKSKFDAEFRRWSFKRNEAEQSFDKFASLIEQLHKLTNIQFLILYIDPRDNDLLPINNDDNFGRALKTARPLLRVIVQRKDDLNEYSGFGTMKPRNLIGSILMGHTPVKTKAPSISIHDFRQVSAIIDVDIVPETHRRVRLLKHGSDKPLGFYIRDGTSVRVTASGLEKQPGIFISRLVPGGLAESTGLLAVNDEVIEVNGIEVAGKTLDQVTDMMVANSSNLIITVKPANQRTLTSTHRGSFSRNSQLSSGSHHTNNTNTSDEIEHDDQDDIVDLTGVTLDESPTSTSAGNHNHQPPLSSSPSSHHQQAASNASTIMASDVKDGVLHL

[5] = biological target: T3, Par6^KPLG170-173AAAA::Flag (Drosophila) (UniProt O97111); test: as above
T3 sequence: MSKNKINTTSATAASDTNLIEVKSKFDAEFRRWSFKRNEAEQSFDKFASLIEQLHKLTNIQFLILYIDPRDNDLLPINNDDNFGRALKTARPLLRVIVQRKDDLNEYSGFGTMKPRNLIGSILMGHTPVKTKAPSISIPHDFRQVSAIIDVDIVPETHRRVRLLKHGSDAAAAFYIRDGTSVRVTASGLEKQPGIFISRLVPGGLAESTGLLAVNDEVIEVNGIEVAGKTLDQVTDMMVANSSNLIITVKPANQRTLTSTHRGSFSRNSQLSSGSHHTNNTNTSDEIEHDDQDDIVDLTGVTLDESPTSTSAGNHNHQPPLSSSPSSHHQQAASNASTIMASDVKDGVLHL

[6] = biological target: T4, Par6^K23A::Flag (Drosophila) (UniProt O97111); test: as above
T4 sequence: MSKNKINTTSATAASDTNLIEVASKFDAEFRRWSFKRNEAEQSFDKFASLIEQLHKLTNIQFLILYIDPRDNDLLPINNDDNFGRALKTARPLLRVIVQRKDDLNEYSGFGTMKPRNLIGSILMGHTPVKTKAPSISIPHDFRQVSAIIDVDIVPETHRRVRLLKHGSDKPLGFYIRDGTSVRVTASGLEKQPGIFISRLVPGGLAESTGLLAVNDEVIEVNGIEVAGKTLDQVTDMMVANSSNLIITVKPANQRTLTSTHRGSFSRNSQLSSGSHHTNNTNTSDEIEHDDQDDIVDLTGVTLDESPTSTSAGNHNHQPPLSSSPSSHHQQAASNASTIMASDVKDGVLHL

B1: Par6::Flag (wild type) (protein, UniProt O97111 1-351)
chain: MSKNKINTTSATAASDTNLIEVKSKFDAEFRRWSFKRNEAEQSFDKFASLIEQLHKLTNIQFLILYIDPRDNDLLPINNDDNFGRALKTARPLLRVIVQRKDDLNEYSGFGTMKPRNLIGSILMGHTPVKTKAPSISIPHDFRQVSAIIDVDIVPETHRRVRLLKHGSDKPLGFYIRDGTSVRVTASGLEKQPGIFISRLVPGGLAESTGLLAVNDEVIEVNGIEVAGKTLDQVTDMMVANSSNLIITVKPANQRTLTSTHRGSFSRNSQLSSGSHHTNNTNTSDEIEHDDQDDIVDLTGVTLDESPTSTSAGNHNHQPPLSSSPSSHHQQAASNASTIMASDVKDGVLHL
- binding [1]: no binding
- binding [2]: binds

B2: aPKC (endogenous) (protein, UniProt A1Z9X0 1-606)
chain: MQKMPSQILNDGSSVSLNSASMNMANTPNSITVKTAYNGQIIITTINKNISYEELCYEIRNICRFPLDQPFTIKWVDEENDPCTISTKMELDEAIRLYEMNFDSQLVIHVFPNVPQAPGLSCDGEDRSIYRRGARRWRKLYRVNGHIFQAKRFNRRAFCAYCQDRIWGLGRQGFKCIQCKLLVHKKCHKLVQKHCTDQPEPLVKERAEESSDPIPVPLPPLPYEAMSGGAEACETHDHAHIVAPPPPEDPLEPGTQRQYSLNDFELIRVIGRGSYAKVLMVELRRTRRIYAMKVIKKALVTDDEDIDWVQTEKHVFETASNHPFLVGLHSCFQTPSRLFFVIEFVRGGDLMYHMQRQRRLPEEHARFYAAEISLALNFLHEKGIIYRDLKLDNVLLDHEGHIKLTDYGMCKEGIRPGDTTSTFCGTPNYIAPEILRGEDYGFSVDWWALGVLLYEMLAGRSPFDLAGASENPDQNTEDYLFQVILEKTIRIPRSLSVRAASVLKGFLNKNPADRLGCHRESAFMDIVSHPFFKNMDWELLERKQVTPPFKPRLDSDRDLANFPPEFTGEAVQLTPDDDHVIDNIDQSEFEGFEYVNPLLMSLEDCV
- binding [3]: binds
- binding [4]: binds
- binding [5]: binds
- binding [6]: no binding

B3: Par6^KPLG170-173AAAA::Flag (protein, UniProt O97111 1-351)
chain: MSKNKINTTSATAASDTNLIEVKSKFDAEFRRWSFKRNEAEQSFDKFASLIEQLHKLTNIQFLILYIDPRDNDLLPINNDDNFGRALKTARPLLRVIVQRKDDLNEYSGFGTMKPRNLIGSILMGHTPVKTKAPSISIPHDFRQVSAIIDVDIVPETHRRVRLLKHGSDAAAAFYIRDGTSVRVTASGLEKQPGIFISRLVPGGLAESTGLLAVNDEVIEVNGIEVAGKTLDQVTDMMVANSSNLIITVKPANQRTLTSTHRGSFSRNSQLSSGSHHTNNTNTSDEIEHDDQDDIVDLTGVTLDESPTSTSAGNHNHQPPLSSSPSSHHQQAASNASTIMASDVKDGVLHL
- binding [2]: binds

B4: Par6^K23A::Flag (protein, UniProt O97111 1-351)
chain: MSKNKINTTSATAASDTNLIEVASKFDAEFRRWSFKRNEAEQSFDKFASLIEQLHKLTNIQFLILYIDPRDNDLLPINNDDNFGRALKTARPLLRVIVQRKDDLNEYSGFGTMKPRNLIGSILMGHTPVKTKAPSISIPHDFRQVSAIIDVDIVPETHRRVRLLKHGSDKPLGFYIRDGTSVRVTASGLEKQPGIFISRLVPGGLAESTGLLAVNDEVIEVNGIEVAGKTLDQVTDMMVANSSNLIITVKPANQRTLTSTHRGSFSRNSQLSSGSHHTNNTNTSDEIEHDDQDDIVDLTGVTLDESPTSTSAGNHNHQPPLSSSPSSHHQQAASNASTIMASDVKDGVLHL
- binding [2]: binds

B5: Par6^Δ139P::Flag (protein, UniProt O97111 1-351)
chain: MSKNKINTTSATAASDTNLIEVKSKFDAEFRRWSFKRNEAEQSFDKFASLIEQLHKLTNIQFLILYIDPRDNDLLPINNDDNFGRALKTARPLLRVIVQRKDDLNEYSGFGTMKPRNLIGSILMGHTPVKTKAPSISIHDFRQVSAIIDVDIVPETHRRVRLLKHGSDKPLGFYIRDGTSVRVTASGLEKQPGIFISRLVPGGLAESTGLLAVNDEVIEVNGIEVAGKTLDQVTDMMVANSSNLIITVKPANQRTLTSTHRGSFSRNSQLSSGSHHTNNTNTSDEIEHDDQDDIVDLTGVTLDESPTSTSAGNHNHQPPLSSSPSSHHQQAASNASTIMASDVKDGVLHL
- binding [2]: no binding
